In patent US20250026842A1 (JIANGSU HENGRUI PHARMACEUTICALS, published 2025):
Like-named read-outs stand apart in the source and are kept apart here.

Tests used:
[1] = molecular target: T1, human 4-1BB on the surface of HEK293-Hu4-1BB cells (human, UniProt Q07011 24-255); experiment: FACS on HEK293 cells highly expressing human 4-1BB
T1 construct: whole, on cells; also called CD137; human 4-1BB antigen
Source text: (§1) HEK293-Hu4-1BB cells were obtained by transient transfection of HEK293 cells (ATCC CRL-1573) with a gene expressing human 4-1BB protein or polypeptide (CD137 cDNA ORF Clone, Human, C-OFPSpark tag; purchased from Sino Biological, Cat #HG10041-ACR). The cell culture medium was DMEM (Gibco, Cat #11995065) containing 10% fetal bovine serum. The experimental medium was sterile PBS (phosphate-buffered saline, pH 7.40) containing 2% fetal bovine serum. HEK293-Hu4-1BB cells were washed with the experimental medium twice and seeded into a 96-well U-bottom plate at 1×10⁵ HEK293-Hu4-1BB cells per well. Different concentrations of the anti-4-1BB single-domain antibody VHH-Fc samples to be tested were added. The cells were incubated at 4° C. for 1 h and then washed with the experimental medium twice. Then the goat anti-human IgG (H+L) Alexa Fluor 488 antibody (Thermo, Cat #A11013) was added. After two washes, fluorescence signal values were measured using a flow cytometer. Urelumab was used as a positive control.
The antigen-binding activity of the humanized antibodies was measured using a FACS assay as described in Example 2.

[2] = molecular target: T1, human 4-1BB on the surface of …; experiment: FACS on HEK293 cells highly expressing human 4-1BB; remark: listed apart in the source
Source text: as §1
A comparison of the antigen-binding activity of C5_V2 and C5_V2-YTI was made using a FACS assay as described in Example 5.

[3] = molecular target: T1, human 4-1BB on the surface of …; experiment: cell-based or functional assay
[4] = molecular target: T1, human 4-1BB on the surface of …; experiment: cell-based or functional assay; remark: listed apart in the source

T1 sequence (Q07011 24-255): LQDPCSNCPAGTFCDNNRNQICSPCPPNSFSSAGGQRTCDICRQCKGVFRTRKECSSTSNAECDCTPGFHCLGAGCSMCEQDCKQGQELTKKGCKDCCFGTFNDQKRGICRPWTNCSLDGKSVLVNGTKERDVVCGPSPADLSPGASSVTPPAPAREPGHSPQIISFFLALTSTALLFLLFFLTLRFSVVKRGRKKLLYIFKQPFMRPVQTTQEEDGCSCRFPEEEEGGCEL

B1: C5_V2 linked to human IgG1-Fc (SEQ ID NO: 10) (Fc fusion)
chain: QVQLVESGGGLVQPGGSLRLSCSASGFTFSSYAMSWVRQAPGKGLEWVSDINSGGESTFYEDSVKGRFTISRDNAKNTLYLQMNSLRAEDTAVYYCAKHPLTFTIATMNDYDYWGQGTLVTVSS[human IgG1 Fc with changes not listed]
notes: Humanized VHH-Fc fusion
**Q.** Which results are given for B1?
**A.** EC50 [1]: 1.62 nM; Maximal fluorescence value [1]: 1030; EC50 [2]: 0.98 nM; Maximal fluorescence value [2]: 53700; Factor of variation in Emax, FcγRIIb-mediated activation of HEK293-4-1BB cells [3]: 2.02 fold; Factor of variation in Emax, activation of HEK293-4-1BB cells [3]: 1.37 fold

B2: C5-Fc (Fc fusion)
chain: QVQLVESGGGLVQPGGSLRLSCSASGFTFSSYAMSWVRQAPGKGLEWVSDINSGGESTFYEDSVKGRFTISRDNAKNTLYLQMNSLKPEDTAVYYCAKHPLTFTIATMNDYDYWGQGTQVTVSS[human IgG1 Fc with changes not listed]
notes: also called anti-4-1BB single-domain antibody C5 (VHH-Fc)
**Q.** How did the EC50 [1] turn out when B2 was run?
**A.** The EC50 was 3.2 nM.

**Q.** What about the “EC50, 4-1BB/NF-κB luciferase reporter, FcγRIIb cross-linking” value [4] of the same binder?
**A.** The value was about 0.814 nM.

**Q.** What about the “Emax, 4-1BB/NF-κB luciferase reporter, FcγRIIb cross-linking” value [4] of the same binder?
**A.** Its value is 10 relative to antibody-free group.

**Q.** And the “Emax, 4-1BB/NF-κB luciferase reporter, no FcγRIIb cross-linking” value [4]?
**A.** Its value is 2.26 relative to antibody-free group.

B3: C5_V1 linked to human IgG1-Fc (SEQ ID NO: 10) (Fc fusion)
chain: QVQLVESGGGLVQPGGSLRLSCSASGFTFSSYAMSWVRQAPGKGLEWVSDINSGGESTFYEDSVKGRFTISRDNAKNTLYLQMNSLRAEDTAVYYCARHPLTFTIATMNDYDYWGQGTLVTVSS[human IgG1 Fc with changes not listed]
notes: Humanized VHH-Fc fusion
**Q.** B3 was tested. Which EC50 [1] did it give?
**A.** The EC50 was 3.79 nM.

**Q.** What about the Maximal fluorescence value [1] of the same binder?
**A.** The Maximal fluorescence value was 1040.

**Q.** What about the “Factor of variation in Emax, FcγRIIb-mediated activation of HEK293-4-1BB cells” value [3] of the same binder?
**A.** Its value is 2.28 fold.

**Q.** And the “Factor of variation in Emax, activation of HEK293-4-1BB cells” value [3]?
**A.** Its value is 1.14 fold.

B4: C5_V2-YTI linked to human IgG1-Fc (SEQ ID NO: 10) (Fc fusion)
chain: QVQLVESGGGLVQPGGSLRLSCSASGFTFSSYAMSWVRQAPGKGLEWVSDINSGGESTFYEDSVKGRFTISRDNAKNTLYLQMNSLRAEDTAVYYCAKHPLTYTIATMNDYDYWGQGTLVTVSS[human IgG1 Fc with changes not listed]
notes: C5_V2 with F99Y (Kabat) in CDR3, as VHH-Fc fusion
**Q.** For B4, which EC50 [2] is on record?
**A.** Its EC50 is 0.62 nM.

**Q.** What about the Maximal fluorescence value [2] of the same binder?
**A.** The Maximal fluorescence value was 53800.

B5: C5_V3 linked to human IgG1-Fc (SEQ ID NO: 10) (Fc fusion)
chain: QVQLVESGGGLVQPGGSLRLSCSASGFTFSSYAMSWVRQAPGKGLEWVSDINSGGESTFYEDSVKGRFTISRDNAKNTLYLQMNSLKPEDTAVYYCAKHPLTFTIATMNDYDYWGQGTLVTVSS[human IgG1 Fc with changes not listed]
notes: Humanized VHH-Fc fusion
**Q.** For B5, which EC50 [1] is on record?
**A.** Its EC50 is 1.65 nM.
